The source of these data is the supplement of paper PMC7726561.

In all, about 1,100 sequences were measured (“thermal melting temperature (Tm) of peptide-HLA complex”: median about 58, lowest 2% from about 42 on). The list shows a part of the results.
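Further: cell lysates heated 10 min at 37–73 °C, remaining pHLA pulled down with pan-class I antibody, peptides quantified by DIA-MS versus 37 °C, Tm where half the complex is lost.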

For the experiment, the target named is HLA-A*02:01. The experiment in a line: thermal melting temperature (Tm) of peptide-HLA complex; higher = more thermostable pHLA complex. As to conditions: C1R-A*02:01.
Regarding MLNEHDFEV, the thermal melting temperature was 57.8 °C.

GILGIQPPSV returned a thermal melting temperature of 60.5 °C.

RMLPHAPGV came in with a thermal melting temperature of 60.3 °C.

Turning to KLLEIDIDGV, the thermal melting temperature worked out at 58 °C.

On to NLAEKLIGV, for which the thermal melting temperature was 62.3 °C.

TLAQRVKEV: the thermal melting temperature is 61.8 °C.

LLDGFPRTV had a thermal melting temperature of 49.2 °C.

SLLKEPQKVQL: the thermal melting temperature is 55.5 °C.

As for TLSDVVVGL, the thermal melting temperature turned out to be 62 °C.

The sequence FLWKEPATM had a thermal melting temperature of 52.9 °C.

On to FLFGEEPSKL, for which the thermal melting temperature was 53.1 °C.

On to ILPSYIPVRV, for which the thermal melting temperature was 57.1 °C.

With ILFGHENRV, the thermal melting temperature turned out to be 57.6 °C.

FIYHGEVPQA had a thermal melting temperature of 58.5 °C.

In turn, SLQSTILGV gave a thermal melting temperature of 58.4 °C.

Sequence LLLAAPAQA displayed a thermal melting temperature of 52.5 °C.

With FLMKNSDLYGA, the thermal melting temperature turned out to be 58.4 °C.

In the case of KLGDFPYVSI, the thermal melting temperature came to 56 °C.

GLADLERAQA came in with a thermal melting temperature of 50.2 °C.

As for YLSGIAHFL, the thermal melting temperature is 62 °C.

Take AALPNVYEV: the thermal melting temperature came to 62.9 °C.

LLLPGPSAA: the thermal melting temperature is 45.2 °C.

Take FLADPSAFVAA: the thermal melting temperature was determined as 58.8 °C.

Take TLSTVISKV: the thermal melting temperature turned out to be 58.3 °C.

In turn, TLLVVVPKL returned a thermal melting temperature of 54.9 °C.

In turn, YAAPGGLIGV yielded a thermal melting temperature of 59.4 °C.

Turning to TLLTKPVEI, the thermal melting temperature was 55.3 °C.

As to FLIGPKLYEA, the thermal melting temperature was found to be 60.8 °C.

With FLIEEQKIVV, the thermal melting temperature worked out at 53.6 °C.

The sequence ALLELVPWRA gave a thermal melting temperature of 58 °C.

VLTKEDFRL registered a thermal melting temperature of 59.8 °C.

For YQIAEQFRV, the thermal melting temperature came to 61.3 °C.

In the case of RLMEPIYLVEI, the thermal melting temperature came to 56.3 °C.

With ALLEMDARL, the thermal melting temperature worked out at 57.9 °C.

For the sequence FLLGKEVSL, the thermal melting temperature came out at 63.8 °C.

For VMFGGKQVVV, the thermal melting temperature stood at 57.5 °C.
